Results as given in ChEMBL document CHEMBL4888484, “Replenishing the malaria drug discovery pipeline: Screening and hit evaluation of the MMV Hit Generation Library 1 (HGL1) against asexual blood stage Plasmodium falciparum ,using a nano luciferase reporter read-out” (2022).
Screen size: about 150,000 compounds; about 540 (0.36%) showed an effect of 50% or more. Some of the results follow.

The compounds below were run on Plasmodium falciparum (assay: Primary screen in NF54 nanoGlo assay, in single point, at 2uM, 72h; a lower Z score goes with more inhibition). Settings: timepoint 72 hour.
Assay type: functional, Erythrocyte

Row | Compound | % Inhibition [%] | Z score
1 | Cc1ccccc1CC(=O)Nc1ccc(C(=O)N2CCCCC2)cc1 | -13 | 1.87
2 | Cc1ccccc1C(=O)N(CCc1cscn1)Cc1cccnc1 | -2 | 0.29
3 | c1ccc2c(c1)CCN(c1ncncc1-c1nc(-c3ccncc3)no1)C2 | -21 | 2.39
4 | COC(=O)[C@@H]1C[C@@H](O)CN1C(C)CCc1cccc(F)c1 (some centres not stated) | 0 | -0.04
5 | O=C(C1CC=CCC1)N1CCC(S(=O)(=O)c2ccccc2)C1 (configuration not stated) | 0 | -0.03
6 | O=C(O)C1(n2ccc(C(F)(F)F)n2)CCCCC1 | -18 | 1.9
7 | COc1ccc2[nH]c3c(c2c1)CCN1C(=O)N([C@@H](C)C(=O)NC2CCN(Cc4ccccc4)CC2)C(=O)[C@]31C | 2 | -0.26
8 | O=C(c1ccc2n[nH]c(=O)n2c1)N1CCOC[C@@H]1CC1CC1 | 9 | -1.43
9 | CCC(=O)N1CCN(c2ccc(N3CCCC3)nn2)CC1 | -17 | 3.23
10 | O=C(Cc1cccs1)N1CCN(c2cc(N3CCOCC3)ncn2)CC1 | -13 | 2.17
11 | C[C@@H](c1nc2ccccc2o1)N1CCC2(CC1)OCC(=O)N2C | -4 | 0.63
12 | CCc1nc(CN2CCc3cc(OC)ccc3C2)n[nH]1 | 1 | -0.1
13 | CC(C)N(Cc1ccccc1)c1ncc(C(=O)NCc2ccccc2F)c(N)n1 | 1 | -0.21
14 | CNc1cc(C)nc(-c2ccc3[nH]ccc3c2)n1 | -3 | 0.38
15 | Cc1nc(C(=O)N2CCOC[C@@H]2CC(=O)Nc2cccc(CO)c2C)cs1 | 1 | -0.1
16 | COc1ccccc1N1CCN(C(=O)c2csc(-c3ccc(C)s3)n2)CC1 | -12 | 1.49
17 | CC(C)c1ccc(NC2CCC2O)cc1 (configuration not stated) | -2 | 0.25
18 | COC(=O)c1cc(S(=O)(=O)NCCc2csc(C)n2)cc(F)c1F | 30 | -4.08
19 | COC(=O)[C@@H](C)NC1CCCC(c2ncccc2C)C1 (some centres not stated) | -22 | 3.11
20 | O=C(CCOc1cccc(Cl)c1Cl)Nc1nccs1 | 4 | -0.86
21 | COc1ccc(C(=O)c2c(-c3ccc(Cl)cc3)c3c4n(c(COc5ccccc5F)nn24)CCCC3)c(OC)c1 | -2 | 0.45
22 | CCCC[C@H](CC)C(=O)Nc1ccccc1C(C)C | -13 | 1.42

Row | Compound | % Inhibition [%] | Z score
23 | Cc1ncc(CNC(=O)c2ncoc2C(F)(F)F)o1 | 10 | -1.27
24 | COc1cc(C(=O)N2CC3(C/C=C/COc4ccccc4C(=O)NCCN(C)C3=O)C2)on1 | 0 | -0.03
25 | CC(C)(C)CCN1CCN(CCO)CC1 | -9 | 0.94
26 | CCC(CC)C(=O)N1C[C@H]2CCCC(=O)N(Cc3ccccc3)[C@H]2C1 | 29 | -3.3
27 | CNC(=O)c1cccc(NCc2cnc3ccccn23)n1 | -15 | 1.26
28 | COc1ccc(CNC(=O)c2ccc3c(c2)nc2n3CCCC2)c(OC)c1 | 0 | 0.07
29 | CC(C)(C)n1nnc(Cn2c(=O)c(Cl)cc3ccccc32)n1 | -5 | 1.07
30 | CC1CC(C)CN(c2nc(O)c3c(n2)NC(=O)CC3c2ccncc2)C1 (configuration not stated) | -12 | 1.84
31 | CC[C@H]1CN(C)CCCN1C(=O)c1cc2c(cn1)OCCC2 | -5 | 1
32 | CCC[C@H](NC(=O)C(C)(C)NC(C)=O)c1nccn1C | -21 | 2.83
33 | COc1cccc(S(=O)(=O)N2CC(c3ccccc3)C(c3ncon3)C2)c1 (configuration not stated) | -9 | 1.49
34 | CCCCCc1ccc(C(=O)Nc2ccc3[nH]cc(CCN(C)C4CCCCC4)c3c2)cc1 | 28 | -2.7
35 | CC1(C)C2OCCC2C1OC(=O)c1noc2c1CCCC2 (configuration not stated) | -2 | 0.26
36 | Cc1ccc(CN(C(=O)COc2ccc(C(C)C)cc2)c2ccccn2)o1 | -4 | 0.59
37 | CC1CN(C(=O)NC2CCCC2C)CC(C)O1 (configuration not stated) | -7 | 0.98
38 | Nc1c2c(-c3cccc(Cl)c3)nc(NCc3ccccn3)nc2nn1-c1ccc(Cl)cc1 | 5 | -0.7
39 | CN(C)c1nsc(NCC2(Cn3cccn3)CC2)n1 | 19 | -2.43
40 | COc1ccc(C)c2sc(N(Cc3ccccn3)C(=O)C3CCCCC3)nc12 | -15 | 1.97
41 | Cc1nc(-n2cnnc2)ccc1-c1ccc(C(N)=O)cc1 | -8 | 1.26
42 | CC1=NN(c2ccc(C(=O)NC[C@H]3CN(CC(C)C)C(=O)CO3)cc2)C(=O)C1 | -2 | 0.24
43 | O=C(CN1C(=O)NC2(CCCCCCC2)C1=O)NCc1ccc(Cl)cc1 | 0 | 0.06
44 | O=C(Cc1scnc1-c1cccs1)NCc1ccccc1F | -3 | 0.36

Row | Compound | % Inhibition [%] | Z score
45 | CN(CC1CC1)S(=O)(=O)NCC1CCCCC1NS(C)(=O)=O (configuration not stated) | -8 | 1.27
46 | O=C(CN1Cc2ccccc2O[C@H](c2ccsc2)C1)N1CCN(c2ncccn2)CC1 | -1 | 0.19
47 | N#Cc1ccc(OC(=O)CCc2ccc(F)cc2)cc1 | -4 | 0.52
48 | COc1ccc(OC)c(-n2cc(C(=O)Nc3ccc(OC)nc3)c3ccccc3c2=O)c1 | -6 | 0.89
49 | O=C1Nc2ccccc2CC[C@@H]1N1CCOCC2(CC2)C1 | -9 | 1.56
50 | Cc1ccc(C(=O)N2CC[C@H](Oc3cc(N(C)C)ncn3)C2)s1 | -17 | 2.17
51 | O=S1(=O)CC[C@H](CN2CCCC3(CCCCC3)CC2)C1 | -4 | 0.73
52 | COc1ccc2[nH]c(CN(C)Cc3nncn3C(C)C)c(C)c2c1 | -19 | 2.07
53 | CC(C)(C)S(=O)(=O)[C@H]1CCN(C(=O)CCc2cccc(Oc3ccc(F)cc3)c2)C1 | -7 | 1.23
54 | CCc1noc(CCNc2ncc(Cl)cc2F)n1 | -7 | 0.98
55 | O=C(NC1CC1)c1csc(Nc2ccc3c(c2)OCO3)n1 | -10 | 1.3
56 | COC(=O)C1CC(c2ccccc2)CN(Cc2nc(N(C)C)no2)C1 (configuration not stated) | 0 | -0.05
57 | Cc1cccc(C)c1[C@H](C)NCc1nc(C2CC2)nn1C | 9 | -1.06
58 | CC(C)CN1CCN(Cc2cccc(O)c2)[C@H]2CS(=O)(=O)C[C@H]21 | -15 | 1.41
59 | O=C(NCc1cccnc1N1CCCCCCC1)[C@H]1CCCNCC1 | -11 | 1.04
60 | CCNc1nc(C)cc(NCCNC(=O)c2cccc(Cl)c2)n1 | 23 | -3.44
61 | COCCNC(=O)[C@@]1(OCc2ccc(F)cc2)CC(OCc2ccccc2C#N)[C@@H]2OC(C)(C)O[C@@H]2C1 (some centres not stated) | -19 | 1.83
62 | COC(=O)N1CCCC(NC(C)c2ccccn2)C1 (configuration not stated) | -10 | 1.12
63 | S=c1scnn1CN1CCC[C@H](c2nc3ccccc3s2)C1 | 3 | -0.35
64 | CC[C@H]1C(=O)NCCN1C(=O)c1cc(C)n[nH]1 | 33 | -1.17
65 | CNC(=O)CCOC(=O)C1CCCCCC1 | -4 | 0.49
66 | Cn1nc2n(c1=O)CCN(C(=O)c1cccc(C#N)c1)CC2 | -9 | 1.06

Row | Compound | % Inhibition [%] | Z score
67 | O=C(NCc1cccc(COC2CCOCC2)c1)N1CCO[C@H](C(F)F)C1 | -9 | 1.19
68 | CON(C(=O)c1cccc2nn[nH]c12)C1CCCC1 | 6 | -0.99
69 | COC1(c2noc(C3(c4ccccc4)CC3)n2)CCC1 | -6 | 0.8
70 | COCCNCC(=O)N1CC(c2ccccc2Cl)OCC1C (configuration not stated) | -12 | 1.37
71 | Cc1cnn(C2CN(Cc3ccc(-n4ccnc4)cc3)C2)c1 | -5 | 0.48
72 | CC1=C(C)CN(c2ccc(C#N)cn2)CC1 | -6 | 0.98
73 | CCC1CCCCN1C(=O)CN1CCCC1c1nnc2ccccn12 (configuration not stated) | -8 | 1.02
74 | CC1=C(c2ccccc2)[C@H]1C(=O)NCC1CCN(C(=O)c2cc(C3CC3)[nH]n2)CC1 | 1 | -0.19
75 | O=C(Nc1cccc(-c2cc3cc(F)ccc3[nH]2)c1)NC1CCCC1 | 1 | -0.16
76 | CC1(C(=O)O)CCN(C(=O)C2CCCOC2c2ccccc2)C1 (configuration not stated) | -5 | 0.73
77 | O=C(Cn1cnnn1)Nc1ccccc1N1CCc2ccccc2C1 | -39 | 4.53
78 | C[C@@H](c1ccc(-n2cncn2)cc1)n1ccnc1-c1cc2n(n1)CCCNC2 | -1 | 0.23
79 | Cc1cc(NCC2(CN3CCCC3)CC2)nc(C)c1C#N | 7 | -1.35
80 | CCn1cc(S(=O)(=O)N2CC[C@@H]3COCCN(C)[C@@H]3C2)cn1 | -15 | 2
81 | CCCC(=O)O[C@H]1C[C@@H](C)N(C(=O)c2ccccc2)c2ccc(C)cc21 | 2 | -0.23
82 | CC(=O)N[C@H]1CN(c2cccc(C#N)n2)C[C@@H]1c1ccc(C)cc1 | 12 | -1.7
83 | C[C@@H](c1nccs1)N1CCN(c2ncnc3c2ncn3C2CC2)CC1 | 0 | 0.03
84 | CCCCS(=O)(=O)N1CCc2cc3ccccc3nc21 | 0 | -0.06
85 | Cc1ccn2c(NC(C)(C)CC(C)(C)C)c(CCc3ccccc3)nc2c1 | 2 | -0.28
86 | CC(C)C(=O)c1cnccc1NC(=O)C[C@H](C)N1CCCCC1=O | 4 | -0.43
